From patent US9603889B2, “IAP antagonists” (BRISTOL-MYERS SQUIBB COMPANY, priority 2012, dated 2017)
Counter-ions that a name gives are not always drawn.

Biological target: XIAP BIR2 (His-BIR2 (124-240/C202A/C213G)) (Homo sapiens (Human), UniProt P98170, C202A/C213G)
Details: read-out: XIAP-BIR2 AlphaScreen IC50; 50 nM His-BIR2 (124-240/C202A/C213G), 50 nM Biotinylated SMAC peptide

SMILES | IC50 [nM]
CN[C@@H](C)C(=O)N[C@H](C(=O)N1Cc2ccccc2C[C@H]1CN(Cc1cccc2ccccc12)C(=O)c1ccc(C(=O)N[C@H]2C[C@@H](C(=O)N[C@@H]3CCCc4ccccc43)N(C(=O)[C@@H](NC(=O)[C@H](C)NC)C(C)(C)C)C2)cc1)C(C)(C)C [Example 34, N^1-(((S)-2-((S)-3,3-Dimethyl-2-((S)-2-(methylamino)propanamido)butanoyl)-1,2,3,4-tetrahydro-isoquinolin-3-yl)methyl)-N^4-((3S,5S)-1-((S)-3,3-dimethyl-2-((S)-2-(methylamino)propanamido)butanoyl)-5-(((R)-1,2,3,4-tetrahydro-naphthalen-1-yl)carbamoyl)pyrrolidin-3-yl)-N^1-(naphthalen-1-ylmethyl) terephthalamide] | 1570
CN[C@@H](C)C(=O)N[C@H](C(=O)N1Cc2ccccc2C[C@H]1CN(Cc1cccc(C)c1C)C(=O)c1ccc(C(=O)Nc2ccc3c(c2)CN(C(=O)[C@@H](NC(=O)[C@H](C)NC)C(C)(C)C)[C@H](C(=O)N[C@@H]2CCCc4ccccc42)C3)cc1)C(C)(C)C [Example 35, N^1-(((S)-2-((S)-3,3-Dimethyl-2-((S)-2-(methylamino)propanamido)butanoyl)-1,2,3,4-tetra-hydroisoquinolin-3-yl)methyl)-N^4-((S)-2-((S)-3,3-dimethyl-2-((S)-2-(methylamino)propanamido)butanoyl)-3-(((R)-1,2,3,4-tetrahydro-naphthalen-1-yl)carbamoyl)-1,2,3,4-tetra-hydroisoquinolin-7-yl)-N^1-(2,3-dimethylbenzyl) terephthalamide] | 1810
CN[C@@H](C)C(=O)N[C@H](C(=O)N1Cc2ccccc2C[C@H]1CN(Cc1cccc(C)c1C)C(=O)c1ccc(C(=O)N[C@H]2C[C@@H](C(=O)N[C@@H]3CCCc4ccccc43)N(C(=O)[C@@H](NC(=O)[C@H](C)NC)C(C)(C)C)C2)cc1)C(C)(C)C [Example 36, N^1-(((S)-2-((S)-3,3-Dimethyl-2-((S)-2-(methylamino)propanamido)butanoyl)-1,2,3,4-tetrahydro-isoquinolin-3-yl)methyl)-N^4-((3S,5S)-1-((S)-3,3-dimethyl-2-((S)-2-(methylamino)propanamido)butanoyl)-5-(((R)-1,2,3,4-tetrahydro-naphthalen-1-yl)carbamoyl)pyrrolidin-3-yl)-N^1-(2,3-dimethyl-benzyl) terephthalamide] | 1290
CN[C@@H](C)C(=O)N[C@H](C(=O)N1Cc2ccccc2C[C@H]1CN(C(=O)c1ccc(C(=O)N[C@H]2C[C@@H](C(=O)N[C@@H]3CCCc4ccccc43)N(C(=O)[C@@H](NC(=O)[C@H](C)NC)C(C)(C)C)C2)cc1)[C@H](C)c1ccccc1F)C(C)(C)C [Example 37, N^1-(((S)-2-((S)-3,3-Dimethyl-2-((S)-2-(methylamino)propanamido)butanoyl)-1,2,3,4-tetrahydro-isoquinolin-3-yl)methyl)-N^4-((3S,5S)-1-((S)-3,3-dimethyl-2-((S)-2-(methylamino)propanamido)butanoyl)-5-(((R)-1,2,3,4-tetrahydro-naphthalen-1-yl)carbamoyl)pyrrolidin-3-yl)-N^1-((R)-1-(2-fluorophenyl)ethyl) terephthalamide] | 650
CN[C@@H](C)C(=O)N[C@H](C(=O)N1Cc2ccccc2CC1C(=O)N(CC1(C(=O)NC2C[C@@H](C(=O)NC3CCCc4ccccc43)N(C(=O)[C@@H](NC(=O)[C@H](C)NC)C(C)(C)C)C2)CC1)[C@@H](COC)c1ccccc1)C(C)(C)C (stereo partly drawn) [Example 38, (S)-2-((S)-3,3-Dimethyl-2-((S)-2-(methylamino)propanamido)butanoyl)-N-((1-(((3S,5S)-1-((S)-3,3-dimethyl-2-((S)-2-(methylamino)propanamido)butanoyl)-5-(((R)-1,2,3,4-tetrahydronaphthalen-1-yl)carbamoyl)pyrrolidin-3-yl)carbamoyl)cyclopropyl)methyl)-N-((S)-2-methoxy-1-phenylethyl)-1,2,3,4-tetrahydroisoquinoline-3-carboxamide, 2 TFA] | 220
CN[C@@H](C)C(=O)N[C@H](C(=O)N1C[C@@H](NC(=O)CCCN(C(=O)[C@@H]2Cc3ccccc3CN2C(=O)[C@@H](NC(=O)[C@H](C)NC)C(C)(C)C)[C@H](C)c2ccccc2F)C[C@H]1C(=O)N[C@@H]1CCCc2ccccc21)C(C)(C)C [Example 41, (S)-2-((S)-3,3-Dimethyl-2-((S)-2-(methylamino)propanamido)butanoyl)-N-(4-(((3S,5S)-1-((S)-3,3-dimethyl-2-((S)-2-(methylamino)propanamido)butanoyl)-5-(((R)-1,2,3,4-tetrahydronaphthalen-1-yl)carbamoyl)pyrrolidin-3-yl)amino)-4-oxobutyl)-N-((R)-1-(2-fluorophenyl)ethyl)-1,2,3,4-tetrahydroisoquinoline-3-carboxamide] | 110
CN[C@@H](C)C(=O)N[C@H](C(=O)N1CC(NC(=O)C2CC2CN(C(=O)[C@@H]2Cc3ccccc3CN2C(=O)[C@@H](NC(=O)[C@H](C)NC)C(C)(C)C)[C@H](C)c2ccccc2F)C[C@H]1C(=O)NC1CCCc2ccccc21)C(C)(C)C (stereo partly drawn) [Example 42, (3S)-2-((S)-3,3-Dimethyl-2-((S)-2-(methylamino)propanamido)butanoyl)-N-((2-(((3S,5S)-1-((S)-3,3-dimethyl-2-((S)-2-(methylamino)propanamido)butanoyl)-5-(((R)-1,2,3,4-tetrahydronaphthalen-1-yl)carbamoyl)pyrrolidin-3-yl)carbamoyl)cyclopropyl)methyl)-N-((R)-1-(2-fluorophenyl)ethyl)-1,2,3,4-tetrahydroisoquinoline-3-carboxamide] | 330
CN[C@@H](C)C(=O)N[C@H](C(=O)N1C[C@@H](NC(=O)C2(CN(C(=O)[C@@H]3Cc4ccccc4CN3C(=O)[C@@H](NC(=O)[C@H](C)NC)C(C)(C)C)[C@H](C)c3cccc(F)c3F)CC2)C[C@H]1C(=O)N[C@@H]1CCCc2ccccc21)C(C)(C)C [Example 43, (S)-N-((R)-1-(2,3-Difluorophenyl)ethyl)-2-((S)-3,3-dimethyl-2-((S)-2-(methylamino)propanamido)butanoyl)-N-((1-(((3S,5S)-1-((S)-3,3-dimethyl-2-((S)-2-(methylamino)propanamido)butanoyl)-5-(((R)-1,2,3,4-tetrahydronaphthalen-1-yl)carbamoyl)pyrrolidin-3-yl)carbamoyl)cyclopropyl)methyl)-1,2,3,4-tetrahydroisoquinoline-3-carboxamide] | 150
